Assay results: PubChem BioAssay AID1963576 (National Center for Advancing Translational Sciences (NCATS), 2024)
The whole screen tested about 46,000 compounds, of which about 60 (0.1%) were called active. Another 3% or so got no clear call; they are omitted. Calls come from the whole dose curve; as a rule, active = well fitted inhibition curve with a large enough effect; inconclusive = small, poorly fitted or top-dose-only effect; inactive = no such curve, though single readings can be large or run the other way. The list shows a part of the results.

Test: Primary qHTS assay for Inhibitors of ovarian cancer metastasis using an organotypic tumor microenvironment (TME) model.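 For activity change, negative = inhibition: plate controls were DMSO wells for no effect and tomatine positive control wells for full effect.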 Note: nearly all actives have a fitted effect of over 65% in size.
Settings: SKOV3ip1-GFP adhesion/invasion on 3D omental model, fluorescence; series mostly up to 45.8 µM; activity change, negative = inhibition: at the top concentration
Summary of the method: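 qHTS, 4-pt dose (0.36-46 umol/L); SKOV3ip1-GFP, 1,200 cells/well, no FBS; primary omental fibroblast/mesothelial co-culture 48 h pre-grown; 2 h RT + 16 h 37 C; PBS wash, 4% PFA; GFP count 488/509 nm.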

Activity change, negative = inhibition, inactive:
CCCN1C(=O)C(O)(CC(=O)c2ccc(C(C)C)cc2)c2ccccc21 (stereo unspecified) -7.71%
CCc1ccccc1NS(=O)(=O)c1ccc2c(c1)CCCN2C(=O)C1CCC1 -2.85%
CC(C)NC(=O)c1ccc2c(c1)N(Cc1cccc(Cl)c1)C(=O)c1ccccc1S2=O (stereo unspecified) -3.58%
CCN(C(=O)Cn1c(=O)oc2cc(S(=O)(=O)N3CCCCC3)ccc21)c1ccccc1 -7.67%
CN1CCN(Cc2c(O)ccc3cc(-c4ccc(Cl)cc4)c(=O)oc23)CC1 -8.15%
CCN(CC)CCCC(C)Nc1ccnc2cc(Cl)ccc12 (stereo unspecified) -20.4%
Cc1cc(C)cc(N2CCn3c2nc2c3c(=O)n(C/C=C/c3ccccc3)c(=O)n2C)c1 17.5%
COc1cccc(CC(=O)Nc2ccc(-c3nc4ccccc4s3)cc2Cl)c1 8.16%
CCOc1cc(CNC(=O)C2CCN(c3nc4ccccc4[nH]3)CC2)cc(OCC)c1OCC 1.23%
COc1ccc(N2CCN(C(=O)C3Cc4ccccc4N3C(C)=O)CC2)cc1 (stereo unspecified) -2.63%
COc1cccc(CNC(=O)c2c(C)oc3ncnc(N4CCOCC4)c23)c1 -8.78%
Cc1ccc2nc(-c3ccc(F)cc3)c(NC(C)(C)CC(C)(C)C)n2c1 2.27%
Cc1ccc(C)c(NC(=O)CCOc2ccccc2)c1 5.01%
COc1ccc(C)cc1NC(=O)C(=O)NCC(c1cccnc1)N1CCN(c2ccccc2F)CC1 (stereo unspecified) -23.2%
Cc1ccc2cccc(NC(=O)c3cccc4c(Br)cccc34)c2n1 55.5%
O=C(NCc1cccc(Cl)c1)c1cc2c(s1)-c1ccccc1SC2 -1.97%
COc1ccc(N2CCN(C(=O)c3ccc4c(c3)N(Cc3cccc(Cl)c3)C(=O)c3ccccc3S4(=O)=O)CC2)cc1 -6.35%
CCCn1cc(S(=O)(=O)c2ccc(C)c(C)c2)c(=O)c2cc(F)c(N3CCC(C)CC3)cc21 3.24%
Cc1cc(C)c2nc(N3CCCC(C(=O)NCc4ccccc4F)C3)sc2c1 (stereo unspecified) -7.05%
CCOC(=O)CC(NC(=O)c1cc2c(=O)n3cccc(C)c3nc2s1)c1ccc(OCC)c(OC)c1 (stereo unspecified) -1.44%
CCOc1ccccc1N(C)C(=O)c1cc2c(s1)-c1ccccc1OC2 7.01%
CC(C)OCCCNC(=O)Cc1ccc(NC(=O)N2CCCCc3ccccc32)cc1 6.88%
CCc1ccccc1NC(=O)Cn1c(=O)n(-c2cccc(C)c2)c(=O)c2c1c1cc(OC)ccc1n2C 40.1%
Cc1ccc(S(=O)(=O)c2cn(CC(=O)Nc3ccc(F)cc3)c3cc4c(cc3c2=O)OCO4)cc1 57.3%
Cc1ccc(C(=O)COC(=O)c2cc(-c3cccs3)nc3ccccc23)cc1 -0.0125%
Cc1ccc(NC(=O)Cn2c(=O)n(CC(=O)NCCc3ccccc3)c(=O)c3ccccc32)cc1C 38.4%
CCc1nc2ccccc2n2c(-c3ccccc3)c3c(=O)n(C)c(=O)n(C)c3c12 -3.81%
CCc1c(C)nc2nncn2c1Nc1ccc(Cl)cc1 -7.37%
COc1cc(C(CC(=O)NCc2ccccc2)N2Cc3ccccc3C2=O)cc(OC)c1OC (stereo unspecified) -2.15%
COc1ccc(OC)c(CNC(=O)Cn2ncc3c([nH]c4ccc(C)cc43)c2=O)c1 3.5%
CCOc1ccccc1NS(=O)(=O)c1ccc2c(c1)CC(C)N2C(=O)C1CC1 (stereo unspecified) -30.1%
Cc1cc(C)n2nc(CNC(=O)c3ccccc3Cl)nc2n1 35%
CC1=C(C(=O)Nc2cc(Cl)ccc2C)C2(CCCCC2)OC1=O 7.56%
O=C(NCCc1csc(-c2ccc(F)cc2)n1)c1ccco1 -6.38%
CC(C)(C)OC(=O)N1CCC(c2c(C(=O)NCCc3ccsc3)cnn2-c2ccccc2Cl)CC1 -17.3%
CCC(CC)C(=O)OCc1cc(=O)n2nc(C3CCCCC3)sc2n1 3.6%
Cc1ccc(-c2c(C(=O)N3CCN(c4cccc(C)c4)C(C)C3)oc(=O)c3ccccc23)cc1 (stereo unspecified) 58.7%
CCOc1ccc(CN2CCc3nc(N4CCN(c5ncccn5)CC4)ncc3C2)cc1OC -5.52%
CCOc1ccc(NC(=O)C2CCN(c3nc4ccccc4[nH]3)CC2)cc1 2.39%
COC(=O)c1c(SC)nc2ccccc2c1OCc1ccccc1Cl -0.432%
CCSc1ccc(C(=O)Nc2ccc(-c3nc4ccc(C)cc4s3)cc2)cc1 -7.77%
COc1ccc(S(=O)(=O)NCCc2nnc3ccc(SCC(=O)Nc4cc(C)cc(C)c4)nn23)cc1 5.15%

outcome, inactive:
COc1ccc(NC(=O)CN2CCN(Cc3ccccc3Cl)S2(=O)=O)cc1Cl
CCc1cccc(NC(=O)CCc2c(C)nc3c(-c4ccccc4)c(C)nn3c2C)c1
COc1cc(OC)c(NC(=O)N2CCC(CN3CCOCC3)CC2)cc1Cl
Cc1c(C)c2cc3c(c(C)c2oc1=O)OCN(CCc1ccccc1)C3
Cc1c(Cl)cccc1NC(=O)CSc1ccc(-c2ccccn2)nn1
COc1cccc(CNS(=O)(=O)c2ccc3c(c2)CC(C)N3C(=O)C2CCC2)c1 (stereo unspecified)
O=C(Cn1c(=O)n(-c2ccc(Cl)cc2)c(=O)c2c3c(sc21)CCCCC3)Nc1cccc(Cl)c1
Cc1ccccc1C(=O)Nc1cc2c(cc1N1CCCCC1)n(C)c(=O)n2C
CCn1c(=O)n(-c2ccc3c(c2)OCO3)c2nc(-c3cccc(OC)c3OC)nc(C(N)=O)c21
COc1ccc(-c2noc(CCC(=O)Nc3cccc(C)c3C)n2)cc1OC
CCc1cccc(NC(=O)Nc2cn(C)c(=O)c3ccccc23)c1
COc1cccc(NC(=O)C2CCN(S(=O)(=O)c3c(C)noc3C)CC2)c1
CCCCc1nc(SCC(=O)Nc2ccc(S(N)(=O)=O)cc2)n[nH]1
COc1ccc(-n2c(=O)c3c4c(sc3n(Cc3ccc(C)cc3C)c2=O)CCC4)c(OC)c1
CCC(C(=O)Nc1ccc(C(C)=O)cc1)n1cnc2nc3c(cc2c1=O)CCCC3 (stereo unspecified)
Cc1cc(C)cc(NC(=O)CCc2nnc3n(C)c(=O)c4sccc4n23)c1
CCOc1ccc(N2C(=O)CS(=O)(=O)C23C(=O)N(Cc2cccc(Cl)c2)c2ccccc23)cc1 (stereo unspecified)
CCOC(=O)c1c(C)[nH]c(C)c1S(=O)(=O)N(C)CC(=O)N1CCN(c2ccc(Cl)cc2)CC1
COc1ccc2c(C)c(CCC(=O)NCc3ccc(C)cc3)c(=O)oc2c1
